# Source: the supplement of paper PMC10037445
# In all, about 2,900 compounds were measured (“NF-kB SEAP reporter activity, fold change vs agonist alone”: median about 0.99, highest 2% from about 2.6 on). This is one part of the list.
# Legend:
# RAW-Dual [1] = test: NF-kB SEAP reporter activity, fold change vs agonist alone; higher = enhanced NF-kB activity; details: library stock concentration (final ~1000-fold dilution): 10 mM
# In short: (§1)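 RAW-Dual macrophages (50,000 cells/well in DMEM, 384-well plates) received 50 nL of library stock by pin tool, then a PRR agonist 1 h later, and were kept at 37 °C, 5% CO2. After 20 hours, supernatant was read for IRF by QuantiLuc luminescence and for NF-κB by QuantiBlue absorbance at 620 nm. Reporter activity is fold change over agonist-alone wells. Cytotoxic wells had IncuCyte confluency below 70% of agonist controls in both mask sets.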
# RAW-Dual [2] = test: NF-kB SEAP reporter activity, fold change vs agonist alone; cytotoxicity flag (confluency mask): not cytotoxic; higher = enhanced NF-kB activity
# In short: as §1
# RAW-Dual [3] = test: NF-kB SEAP reporter activity, fold change vs agonist alone; cytotoxicity flag (confluency mask): cytotoxic (confluency <70% of control); higher = enhanced NF-kB activity
# In short: as §1
# [4] = cytotoxicity flag (confluency mask): not cytotoxic, agonist: Imiquimod (TLR7) […]
# [5] = cytotoxicity flag (confluency mask): not cytotoxic, agonist: MPLA (TLR4) […]
# [6] = agonist: ODN 1826 (TLR9) 0.5 ug/mL
# [7] = agonist: Pam2CSK4 (TLR2/6) 0.1 ug/mL
# [8] = agonist: Pam3CSK4 (TLR2/1) 0.1 ug/mL
smiles,measurement,setting,value
O=C(O)CCCCC(CCSCc1ccccc1)SCc1ccccc1 (configuration not stated),NF-kB SEAP reporter activity,RAW-Dual [1]; [4],1.29
same,NF-kB SEAP reporter activity,RAW-Dual [1]; [5],1.13
O=C(O)CCCCC(CCSCc1ccccc1)SCc1ccccc1 (configuration not stated) (library stock concentration (final ~1000-fold dilution): 10 mM),NF-kB SEAP reporter activity,RAW-Dual [2]; agonist: LPS (TLR4) 0.1 ug/mL,1.31
same,NF-kB SEAP reporter activity,RAW-Dual [2]; [6],1.1
same,NF-kB SEAP reporter activity,RAW-Dual [2]; [7],1.12
same,NF-kB SEAP reporter activity,RAW-Dual [2]; [8],1.31
CC(C)N(CCCNC(=O)Nc1ccc(C(C)(C)C)cc1)CC1OC(n2ccc3c(N)ncnc32)C(O)C1O (configuration not stated) (library stock concentration (final ~1000-fold dilution): 10 mM),NF-kB SEAP reporter activity,RAW-Dual [2]; agonist: LPS (TLR4) 0.1 ug/mL,0.953
same,NF-kB SEAP reporter activity,RAW-Dual [2]; [6],1.05
same,NF-kB SEAP reporter activity,RAW-Dual [2]; [7],0.991
same,NF-kB SEAP reporter activity,RAW-Dual [2]; [8],1.14
CC(C)N(CCCNC(=O)Nc1ccc(C(C)(C)C)cc1)CC1OC(n2ccc3c(N)ncnc32)C(O)C1O (configuration not stated),NF-kB SEAP reporter activity,RAW-Dual [1]; [4],1.02
same,NF-kB SEAP reporter activity,RAW-Dual [1]; [5],0.984
C=C(Cc1ccccc1Cl)C(=O)OCC (library stock concentration (final ~1000-fold dilution): 10 mM),NF-kB SEAP reporter activity,RAW-Dual [3]; agonist: LPS (TLR4) 0.1 ug/mL,0.636
same,NF-kB SEAP reporter activity,RAW-Dual [3]; [6],0.588
same,NF-kB SEAP reporter activity,RAW-Dual [3]; [7],0.682
same,NF-kB SEAP reporter activity,RAW-Dual [3]; [8],0.806
C=C(Cc1ccccc1Cl)C(=O)OCC,NF-kB SEAP reporter activity,"RAW-Dual [1]; cytotoxicity flag (confluency mask): cytotoxic (confluency <70% of control), agonist: Imiquimod (TLR7) […]",0.73
same,NF-kB SEAP reporter activity,"RAW-Dual [1]; cytotoxicity flag (confluency mask): cytotoxic (confluency <70% of control), agonist: MPLA (TLR4) […]",0.891
CC12CCC3C(CCC4C(C)(C(=O)O)CCCC34C)(CC1=O)C2 (configuration not stated) (library stock concentration (final ~1000-fold dilution): 10 mM),NF-kB SEAP reporter activity,RAW-Dual [2]; agonist: LPS (TLR4) 0.1 ug/mL,1.41
same,NF-kB SEAP reporter activity,RAW-Dual [2]; [6],1.11
same,NF-kB SEAP reporter activity,RAW-Dual [2]; [7],1.13
same,NF-kB SEAP reporter activity,RAW-Dual [2]; [8],1.02
CC12CCC3C(CCC4C(C)(C(=O)O)CCCC34C)(CC1=O)C2 (configuration not stated),NF-kB SEAP reporter activity,RAW-Dual [1]; [4],0.95
same,NF-kB SEAP reporter activity,RAW-Dual [1]; [5],1.14
CC12CC(O)C3CC1(OC1OC(CO)C(O)C(O)C1O)C3(COC(=O)c1ccccc1)C(=O)O2 (configuration not stated),NF-kB SEAP reporter activity,RAW-Dual [1]; [4],0.925
same,NF-kB SEAP reporter activity,RAW-Dual [1]; [5],1.04
CC12CC(O)C3CC1(OC1OC(CO)C(O)C(O)C1O)C3(COC(=O)c1ccccc1)C(=O)O2 (configuration not stated) (library stock concentration (final ~1000-fold dilution): 10 mM),NF-kB SEAP reporter activity,RAW-Dual [2]; agonist: LPS (TLR4) 0.1 ug/mL,1.33
same,NF-kB SEAP reporter activity,RAW-Dual [2]; [6],0.943
same,NF-kB SEAP reporter activity,RAW-Dual [2]; [7],1.11
same,NF-kB SEAP reporter activity,RAW-Dual [2]; [8],1.16
CC(C)(C)c1nc(-c2cccc(NS(=O)(=O)c3c(F)cccc3F)c2F)c(-c2ccnc(N)n2)s1 (library stock concentration (final ~1000-fold dilution): 10 mM),NF-kB SEAP reporter activity,RAW-Dual [3]; agonist: LPS (TLR4) 0.1 ug/mL,3.02
same,NF-kB SEAP reporter activity,RAW-Dual [3]; [6],3.35
Cc1cc(Nc2cc(N)ncn2)c(=O)n2c1C(=O)NC21CCCCC1,NF-kB SEAP reporter activity,RAW-Dual [1]; [4],1.2
same,NF-kB SEAP reporter activity,RAW-Dual [1]; [5],1.33
Cc1cc(Nc2cc(N)ncn2)c(=O)n2c1C(=O)NC21CCCCC1 (library stock concentration (final ~1000-fold dilution): 10 mM),NF-kB SEAP reporter activity,RAW-Dual [2]; agonist: LPS (TLR4) 0.1 ug/mL,1.94
same,NF-kB SEAP reporter activity,RAW-Dual [2]; [6],1.36
same,NF-kB SEAP reporter activity,RAW-Dual [2]; [7],1.22
same,NF-kB SEAP reporter activity,RAW-Dual [2]; [8],1.27
Cc1c(C(=O)Nc2ccc(N3CCC(N4CCOCC4)CC3)c(C#N)c2)cnn1-c1ccc(Cl)cc1 (library stock concentration (final ~1000-fold dilution): 10 mM),NF-kB SEAP reporter activity,RAW-Dual [2]; agonist: LPS (TLR4) 0.1 ug/mL,0.827
same,NF-kB SEAP reporter activity,RAW-Dual [2]; [6],1.92
same,NF-kB SEAP reporter activity,RAW-Dual [2]; [7],0.819
same,NF-kB SEAP reporter activity,RAW-Dual [2]; [8],1.3
